The source of these data is ChEMBL document CHEMBL1201862, “PubChem BioAssay data set” (2004).

Values joined by “and” are separate entries in the source; they are usually repeats but may differ in a detail not shown here. Identical values can stand only once.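 96-well plates; 48 h exposure; 5 concentrations. Endpoints by linear interpolation between flanking doses. Not reached: highest tested concentration assigned. Here, GI50 denotes the concentration required for 50% inhibition of growth.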 Active and inactive are the calls of the source. No stated cut-off is given here; in the data, active = GI50 up to about 1.1 µM and inactive = higher.

In the assay the test system is NCI-H322M. The assay is described as follows: DTP human tumour cell line panel, 48 h.
Consider `N/C(S)=N/N=C/c1ncccc1O`, for which the GI50 (as a rule, the concentration giving 50% growth inhibition) was inactive: 2.97 µM.
On to `C(=C\Nc1ccc(-c2ccccc2)cc1)/C=N/c1ccc(-c2ccccc2)cc1`, for which the GI50 is inactive: > 100 µM.
Regarding `FC(F)(F)c1cccc(-c2nc3nc(Cl)c(Cl)nc3[nH]2)c1`, the GI50 is inactive: 2.3 µM.
With `COc1ccc2c(c1)NC1(O)c3ccccc3C(=O)C21O` (configuration not stated), the GI50 is inactive: > 100 µM.
For `CCOC(=O)C(NC(=O)CC)(Nc1ccc(S(=O)(=O)Nc2ncccn2)cc1)C(F)(F)F` (configuration not stated), the GI50 was inactive: > 100 µM.
The same measure for `CC(=O)N(O)Cc1ccccc1`: inactive: > 100 µM; for `O=C(CSC1=NC(=O)C2(NN1)c1ccccc1-c1ccccc12)NC(=S)Nc1ccccc1`: inactive: > 10 µM; for `O=c1c2ccccc2nc(-c2ccc(Cl)cc2)n1O`: inactive: 30.1 µM.
On to `O/N=C1\SC(=N\O)/C(=N/O)S\C1=N/O`, for which the GI50 was inactive: > 100 µM.
With `Clc1c(Cl)c(Cl)c2c(nnn2C2CCCO2)c1Cl` (configuration not stated), the GI50 is inactive: 46.9 µM.
For `Cc1n2nc(N)sc2n[n+]1CC(=O)c1ccccc1`, the GI50 is inactive: 25.4 µM.
Take `O=C1CCCCC12CCC/C2=N\O` (configuration not stated): the GI50 was inactive: > 100 µM.
The same measure for `CCN(CC)C1Oc2cc3c(cc2C(c2cccc(OC)c2OC)C1C)OCO3` (configuration not stated): inactive: 13.8 µM; for `CCOC(=O)OC1C(Br)C2CCC1(C)C2(C)C` (configuration not stated): inactive: 15.9 µM.
The same measure for `O=[N+]([O-])c1ccc(-c2nc3ccccc3o2)cc1`: inactive: > 100 µM.
With `COc1cccc(/C=C/c2cnc3ccccc3n2)c1OC`, the GI50 was inactive: > 100 µM.
In the case of `COc1ccc(/C=C2\CNC/C(=C\c3ccc(OC)cc3)C2=O)cc1`, the GI50 is inactive: 77.4 µM.
`CC(C)(C)C1CCC2c3c([nH]c4ccccc34)C3C(=O)N(c4ccc5c(c4)C(=O)c4ccccc4C5=O)C(=O)C3C2C1` (configuration not stated): the GI50 is inactive: > 100 µM.
The same measure for `CSc1nc2c(c(=O)[nH]1)N=C(c1ccc(Cl)cc1)CC(c1ccccc1)N2` (configuration not stated): inactive: 17.5 µM.
Take `COc1cc2c(cc1OC)[C@@H]([C@H](O)c1ccccc1)NCC2`: the GI50 was inactive: > 100 µM.
In the case of `COC(=O)/C(=N\NC(N)=O)C(C(=O)C(=O)Nc1ccccc1C(=O)OC)c1nc2ccc(C(=O)c3ccccc3)cc2nc1O` (configuration not stated), the GI50 was inactive: > 100 µM.
The same measure for `CCN1CC2=C(N=c3s/c(=C\c4ccc(Cl)cc4)c(=O)n3C2c2ccc(Cl)cc2)/C(=C/c2ccc(Cl)cc2)C1` (configuration not stated): inactive: > 100 µM.
With `Cc1cccc2c1C(=O)/C(=C/c1ccccc1C(=O)O)C2`, the GI50 was inactive: > 100 µM.
The same measure for `Cc1c(C)c(C)c(CSC(=N)N)c(C)c1C`: inactive: 15.4 µM.
In the case of `CN(CC(=O)O)S(=O)(=O)c1ccc2ccccc2c1`, the GI50 was inactive: > 100 µM.
Turning to `CC(=O)NC1C(O)C(O)C(CO)OC1n1ncc(=O)[nH]c1=O` (configuration not stated), the GI50 was inactive: > 100 µM.
As for `O=C(CC1(O)C(=O)Nc2ccc(Br)cc21)c1ccc(Cl)cc1Cl` (configuration not stated), the GI50 was inactive: 50.9 µM.
Turning to `CC(=O)Oc1ccc2c(c1)c1c(=O)oc(N(C)C)nc1n2Cc1ccccc1`, the GI50 is inactive: > 100 µM.
Consider `CC1(C)CCC[C@@]2(C)C1C(=O)[C@@H]1O[C@]1(C)[C@@H]2CO` (some centres not stated), for which the GI50 was inactive: 42.3 µM.
The same measure for `CC(=O)N(C)CCc1c[nH]c2ccccc12`: inactive: > 100 µM.
With `COc1ccc(CNc2cnc3cc(N)ccc3n2)cc1`, the GI50 is inactive: > 100 µM.
Take `COc1ccc(/C=C/COC(C)=O)cc1OC`: the GI50 is inactive: > 100 µM.
For the compound `C[n+]1c2ccccc2c(C(=O)Nc2ccc(S(=O)(=O)Nc3ccnn3-c3ccccc3)cc2)c2ccccc21`, the GI50 was inactive: > 100 µM.
On to `Cc1ccc(NC(=O)CCc2nnc(N)o2)cc1`, for which the GI50 is inactive: > 100 µM.
On to `CN(C)c1ccc(/C=C2\N=C(N/N=C/c3ccccc3)NC2=O)cc1`, for which the GI50 was inactive: > 100 µM.
Consider `CC(=O)c1ccc(NC(=O)/C(Cc2ccccn2)=N/NC(=O)C[N+](C)(C)C)cc1`, for which the GI50 was inactive: > 100 µM.
Regarding `S=C(N/N=C(\c1ccccc1)c1ccccn1)NC1CCCCC1`, the GI50 is inactive: 8.63 µM.
As for `Cc1oc2c(c1C(=O)c1ccccc1)C(=O)c1ccccc1C2=O`, the GI50 is inactive: 16.7 µM.
Take `CC(=O)Oc1cc(C)c(OC(C)=O)c2c1[C@H]1CC[C@]3(C)[C@@H](OC(C)=O)CC[C@H]3[C@@H]1CC2`: the GI50 is inactive: 15.4 µM.
For `CC1(C)C2CCC1(C)C(N/C(=C(/C(Cl)=C(Cl)Cl)[N+](=O)[O-])n1nnc3ccccc31)C2` (configuration not stated), the GI50 is inactive: 36.6 µM.
With `O=C(CC1(O)C(=O)Nc2c(Cl)cc(Cl)cc21)c1ccc(Br)cc1Br` (configuration not stated), the GI50 is inactive: 25.9 µM.
For the compound `Cc1ccc2c(c1)C=CC1(O2)N(c2ccccc2)C(=S)OC1(C)C` (configuration not stated), the GI50 was inactive: > 100 µM.
For `CCc1nc(N)nc(N)c1-c1ccc2c(c1)nnn2CCc1ccccc1`, the GI50 was inactive: 18 µM.
For the compound `Cc1cc(O)nc(NN2C(Cl)C(=O)C2c2ccc(Cl)cc2)n1` (configuration not stated), the GI50 is inactive: 19.7 µM.
Take `O=C1N/C(=N/N=C/C(O)C(O)C(O)C(O)CO)N/C1=C\c1c[nH]c2ccccc12` (configuration not stated): the GI50 is inactive: > 100 µM.
As to `O=S1(=O)c2ccccc2N2C(c3ccccc3)=NOC2(c2ccccc2)CC1c1ccc(Br)cc1` (configuration not stated), the GI50 was inactive: > 100 µM.
The same measure for `COC(=O)/C=C\C(C#N)(C#N)/N=C/c1ccc(Br)cc1`: inactive: 18.3 µM.
On to `COc1ccccc1/C=C(/C)[N+](=O)[O-]`, for which the GI50 is inactive: 16.3 µM and inactive: 9.66 µM.
Regarding `NNC(=O)CCC(NS(=O)(=O)c1ccc(Cl)cc1)C(=O)NN` (configuration not stated), the GI50 is inactive: > 100 µM.
`CCCc1c(OC)c(=O)c2c(OC)cc(OC)c3c4c(OC)cc(OC)c5c(=O)c(OC)c(CCC)c(c1c23)c54`: the GI50 was inactive: 14.9 µM.
As for `Cc1c2n(c3ccccc13)S(=O)(=O)c1ccccc1-2`, the GI50 was inactive: 23.1 µM.
As for `N/C(COc1ccc(Cl)cc1)=N\NC(=O)c1ccncc1`, the GI50 is inactive: > 100 µM.
The same measure for `Cc1c(C(=O)c2ccc(N)c3ccccc23)c2ccccc2n1CCN1CCOCC1`: inactive: 5.93 µM; for `CC1=NN(c2nc(N)nc(COCc3nc(N)nc(N4N=C(C)CC4(C)C)n3)n2)C(C)(C)C1`: inactive: > 100 µM; for `COCCCNC(=O)C1=C(C)NC(C)=C(C(=O)NCCCOC)C1`: inactive: > 100 µM.
For the compound `CC12CN(CC[N+](C)(C)C)CC1(C)C1CCC2O1` (configuration not stated), the GI50 was inactive: > 100 µM.
For the compound `Cn1c(O)c(C(=O)Nc2ccc([N+](=O)[O-])cc2)c(=O)n(C)c1=S`, the GI50 was inactive: 2.59 µM.
Consider `CCOC(=O)c1nnc2c(C#N)c(-c3ccccc3)c(C)n2c1N`, for which the GI50 was inactive: 58.3 µM.
For the compound `CSc1nc(NC2OCC(O)C(O)C2O)c(N)c(=O)[nH]1` (configuration not stated), the GI50 was inactive: > 100 µM.
The same measure for `COc1cc(S(=O)(=O)Nc2ccc(-c3csc(N4C(=O)C(Cl)C4c4cccc(Oc5ccccc5)c4)n3)cc2)ccc1Cl` (configuration not stated): inactive: > 100 µM; for `CCN(CC)CC1CCCCN1CC(=O)N1c2ccccc2NC(=O)c2ccccc21` (configuration not stated): inactive: > 100 µM.
For the compound `Cc1ccc([N+](=O)[O-])cc1S(=O)(=O)Nc1ccc(C2=NN(S(=O)(=O)c3cc([N+](=O)[O-])ccc3C)C(c3ccccc3)C2)cc1` (configuration not stated), the GI50 was inactive: 31.7 µM.
For the compound `Cc1ccc(S(=O)(=O)N/N=C\c2c3ccccc3[n+](C)c3ccccc23)cc1`, the GI50 is inactive: 10 µM.
In the case of `COC(=O)[C@H]1COC(=S)N1C(=O)[C@@H](C)[C@H](O)C(C)C`, the GI50 was inactive: > 100 µM.
Turning to `O=c1[nH]c(Nc2nc3ccccc3[nH]2)nc(O)c1Cc1ccccc1`, the GI50 was inactive: > 100 µM.
Take `Cc1ccc2nc3c(C)cc(=O)cc-3sc2c1`: the GI50 is inactive: 37.1 µM.
On to `CC(=O)/C(=C\I)c1ccccc1`, for which the GI50 is inactive: 12.7 µM.
On to `CN(C)CC1CCCC/C1=N/O` (configuration not stated), for which the GI50 was inactive: > 100 µM.
For the compound `N#Cc1ccc(Nc2cnc3ccc(N)cc3n2)cc1`, the GI50 is inactive: > 100 µM.
On to `CSc1s[s+]c(SC)c1-c1ccccc1`, for which the GI50 was inactive: 38.2 µM.
With `C=CC1(CC)/C(=N\O)C(CC)(CC)C(=O)N1O` (configuration not stated), the GI50 was inactive: > 100 µM.
Turning to `CN(Cc1cnc2nc(N)nc(N)c2n1)c1ccc(C(=O)NC(CCC(=O)NC(P(=O)(O)O)P(=O)(O)O)C(=O)O)cc1` (configuration not stated), the GI50 was inactive: > 100 µM.
`CCN(CC)CCOC(c1ccccc1)c1ccccc1.CCOC(=O)Nc1ccc(S(=O)(=O)NCCCl)cc1.CCOC(=O)Nc1ccc(S(=O)(=O)NCCCl)cc1.Nc1ccc(C(=O)O)c(O)c1`: the GI50 is inactive: > 100 µM.
Take `COc1cc(/N=N\c2ccc(OC)c(S(=O)(=O)O)c2)c(C)cc1/N=N\c1ccc(/C=C/c2ccc(/N=[N+](/[O-])c3ccc(/C=C/c4ccc(/N=N/c5cc(C)c(/N=N\c6ccc(OC)c(S(=O)(=O)O)c6)cc5OC)cc4S(=O)(=O)O)c(S(=O)(=O)O)c3)cc2S(=O)(=O)O)c(S(=O)(=O)O)c1`: the GI50 was inactive: > 100 µM.
For `CC(=O)O[C@H]1C=CC23OC(=O)[C@]1(C)[C@H]2[C@H](C(=O)O)C12CC(=O)[C@@](CO)(CC[C@H]13)C2`, the GI50 is inactive: > 100 µM.
The same measure for `CC(C)CCCC(C)[C@H]1CCC(C2C[C@@H](O)[C@@H]3CC(O)[C@@H](O)C[C@]3(CO)C2=O)[C@]1(C)CCO` (some centres not stated): inactive: 28.7 µM; for `CN(Cc1cnc2nc(N)nc(N)c2n1)c1ccc(C(=O)NCS(=O)(=O)O)cc1`: inactive: > 100 µM; for `NC(C/C=C/P(=O)(O)O)C(=O)O` (configuration not stated): inactive: > 100 µM.
On to `COc1ccc(-c2cc(=O)c3c(O)cc(O)cc3o2)c(OC)c1OC`, for which the GI50 was inactive: > 100 µM.
Turning to `COc1ccc(-c2nc3ccc(C)cc3o2)c(OC)c1`, the GI50 was inactive: 4.23 µM.
For `O=C(CCCn1ccnc1[N+](=O)[O-])NCCn1cnc([N+](=O)[O-])n1`, the GI50 was inactive: > 100 µM.
As for `CCN(CC)CCNc1ccc2ncn3c4c(OC)ccc(OC)c4c(=O)c1c23`, the GI50 is inactive: 10.6 µM.
